The campaign covered roughly 350,000 compounds. About 260 (0.074%) were called active. Inconclusive results, whose numbers are uncertain, are shown with a selection of clear calls. Calls come from the whole dose curve; as a rule, active = well fitted inhibition curve with a large enough effect; inconclusive = small, poorly fitted or top-dose-only effect; inactive = no such curve, though single readings can be large or run the other way. Potencies of inconclusive entries are doubtful fits and often do not repeat.
Target: Ferritin light chain (Equus caballus) (UniProt P02791)
Assay: qHTS Assay for Identification of Novel General Anesthetics; note: nearly all actives have a fitted effect of over 20% in size
Conditions: apoferritin/1-aminoanthracene competitive binding, fluorescence; series mostly up to 77.5 µM
Summary of the method: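 Horse-spleen apoferritin (10 uM) was mixed with 50% saturated 1-aminoanthracene in PBS, exposed to compounds for 10 min at room temperature, and read for fluorescence (ex 380 nm, em 535 nm). Competitive displacement was fitted with a four-parameter Hill equation.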
Potency is the fitted concentration of half-maximal effect; tags give direction and shape of the fitted curve.

Chain of UniProt P02791 (P02791 whole entry, looked up): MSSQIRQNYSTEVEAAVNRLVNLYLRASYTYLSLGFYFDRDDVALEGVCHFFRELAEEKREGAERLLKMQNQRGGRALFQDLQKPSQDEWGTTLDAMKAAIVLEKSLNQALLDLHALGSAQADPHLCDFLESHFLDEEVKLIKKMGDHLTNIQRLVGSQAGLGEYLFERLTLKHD

| SMILES | Potency |
| --- | --- |
| COC(=O)C(/C=N/OCc1ccc([N+](=O)[O-])cc1)NC(=O)c1cccc(Cl)c1 (centres undefined) | inconclusive: 25.1 µM [inhibitor, single point] |
| COc1cccc(CN2CCC(C(=O)Nc3ccc(-c4cccc(C)c4)cc3)CC2)c1O | inconclusive: 14.1 µM [inhibitor, partial curve] |
| O=C(c1ccco1)N1N=C(c2cccs2)CC1c1ccco1 (centres undefined) | inconclusive: 35.5 µM [inhibitor, partial curve] |
| CCOc1ccc(OCc2ccc(C(=O)NC(C)(C)C)o2)cc1 | inconclusive: 28.2 µM [inhibitor, partial curve] |
| COc1cccc(C2CNC3(CCCC(C)C3)c3[nH]c4ccccc4c32)c1OC (centres undefined) | inactive |
| Nc1ccccc1SCc1csc(-c2ccc(Cl)cc2)n1 | inactive |
| O=C(c1ccc(OC2CCN(C/C=C/c3ccc(F)cc3)CC2)cc1)N1CCCCC1 | inconclusive: 50.1 µM [inhibitor, single point] |
| CC(C)C(C)(C#N)NC(=O)CSc1nc2scc(-c3ccco3)c2c(=O)n1-c1ccccc1 (centres undefined) | inconclusive: 25.1 µM [inhibitor, partial curve] |
| O=C(COC(=O)Cc1ccc(Cl)cc1Cl)NCCC1=CCCCC1 | inconclusive: 25.1 µM [inhibitor, partial curve] |
| NC(=O)C(F)(F)C12OC3C4C5CC(C6C5C3C61)C42 (centres undefined) | inconclusive: 12.6 µM [inhibitor, partial curve] |
| COc1nc(NCc2cccnc2)nc(NC2CCCCC2)n1 | inconclusive: 25.1 µM [inhibitor, single point] |
| Cc1ccccc1C(=O)NC1CCCCCCC1 | inconclusive: 50.1 µM [inhibitor, single point] |
| Cc1cc(Cl)ccc1OCCCC(=O)N1CCCCC1 | inconclusive: 28.2 µM [inhibitor, partial curve] |
| O=C1COc2ccc(C(=O)CSc3nnc(NCc4ccccc4)s3)cc2N1 | inconclusive: 25.1 µM [inhibitor, partial curve] |
| COc1ccccc1C1NC(c2ccccc2OC)C(C)C(=O)C1C (centres undefined) | inconclusive: 25.1 µM [inhibitor, partial curve] |
| O=Cc1ccc(Sc2nnc(-c3ccccc3)o2)c([N+](=O)[O-])c1 | inconclusive: 25.1 µM [inhibitor, partial curve] |
| O=C(CN1C(=O)c2ccccc2C1=O)OCC(=O)N1CCc2ccccc2C1 | inconclusive: 28.2 µM [inhibitor, partial curve] |
| O=C(Nc1cccc(Cl)c1)OCc1cncs1 | inconclusive: 15.8 µM [inhibitor, partial curve] |
| O=C(COc1ccccc1Cl)N1CCc2ccccc2C1 | inconclusive: 31.6 µM [inhibitor, partial curve] |
| Cc1cc(SCc2ccccc2C)nc(=O)[nH]1 | inconclusive: 28.2 µM [inhibitor, partial curve] |
| N#C/C=C1\n2c(nc3ccccc32)OC12CCCCC2 | inactive |
| O=c1[nH]c(-[n+]2ccccc2)c(/C=N/NC([S-])=Nc2ccccc2)s1 | inactive |

| SMILES | Potency |
| --- | --- |
| O=C(CN1CCCN(Cc2ccccc2Cl)S1(=O)=O)NCc1ccccc1 | inactive |
| O=C(CNC(=O)c1ccco1)OCC(=O)c1ccc(Cl)cc1Cl | inconclusive: 28.2 µM [inhibitor, partial curve] |
| CN(Cc1ccccc1)Cc1ccccc1F | inconclusive: 14.1 µM [inhibitor, partial curve] |
| O=c1cc(CO)oc(C(Nc2ccccn2)c2ccc(F)cc2)c1O (centres undefined) | inconclusive: 50.1 µM [inhibitor, single point] |
| CCC(C)c1ccc(NC(=O)COC(=O)c2nc3nccc(C)n3n2)cc1 (centres undefined) | inconclusive: 35.5 µM [inhibitor, partial curve] |
| ClC(Cl)c1nnc(-c2ccccc2)c(-c2c[nH]c3ccccc23)n1 | inactive |
| C/C(N)=C(/C#N)C(=O)COC(=O)c1cc2c(s1)CCCC2 | inconclusive: 31.6 µM [inhibitor, single point] |
| CC(CNC(=O)CCc1nnc(CCC2CCCCC2)o1)c1ccccc1 (centres undefined) | inconclusive: 31.6 µM [inhibitor, partial curve] |
| CN1C(=O)/C(=C\C(=O)c2cccs2)c2ccccc21 | inconclusive: 35.5 µM [inhibitor, partial curve] |
| CCOc1cccc2cc(C(=O)Oc3ccc(OC)cc3)c(=O)oc12 | inconclusive: 25.1 µM [inhibitor, partial curve] |
| CN(C)c1cc[n+](/C(C(=S)Nc2ccc(SC(F)F)cc2)=C(/[O-])c2ccccc2)cc1 | inconclusive: 14.1 µM [inhibitor, partial curve] |
| CC1(C)C(=O)OC(C(=O)c2ccccc2)C(C)(C)C1=O (centres undefined) | active: 8.91 µM |
| CCN(CC)S(=O)(=O)c1ccc(C)c(C)c1 | inconclusive: 11.2 µM [inhibitor, partial curve] |
| CCOC(=O)c1[nH]c2ccc(Br)cc2c1NC(=O)CCN1CCCC(C)(C)C1 | inactive |
| CN(C(=O)CSC1=Nc2ccccc2C2=NC(c3ccccc3)C(=O)N12)C1CCCCC1 (centres undefined) | inconclusive: 35.5 µM [inhibitor, partial curve] |
| CC1(C)C(C=C(Cl)Cl)C1C(=O)OCc1cccc(Oc2ccccc2)c1 (centres undefined) | inactive |
| COC(=O)c1ccc(-c2ccc(/C=N/N3C(=O)C4C5C=CC(C6CC56)C4C3=O)o2)cc1 (centres undefined) | inconclusive: 50.1 µM [inhibitor, single point] |
| Cc1nc(-c2ccc(Cl)cc2)sc1CCNC(=O)c1cccs1 | inactive |
| CC(=O)Nc1nonc1-c1nnc(SCC(=O)Nc2cc(C)cc(C)c2)n1-c1ccccc1 | inconclusive: 11.2 µM [inhibitor, partial curve] |
| COc1cccc(/C=N/NC(=O)CNC(=O)/C=C\c2ccccc2)c1O | inconclusive: 15.8 µM [inhibitor, partial curve] |
| O=C(CNC(=O)c1ccccc1Cl)N/N=C/c1ccc2c(c1)OCO2 | inconclusive: 5.62 µM [inhibitor, partial curve] |
| CC1CCN(C(=O)/C=C/c2ccc(C(C)(C)C)cc2)CC1 | inactive |

— PubChem BioAssay AID485281 (National Center for Advancing Translational Sciences (NCATS), 2010)
